Assay results: the supplement of paper PMC4166925
± gives the standard deviation of the averaged measurements. In all, about 33,000 sequences were measured (“E-score (dimensionless, -0.5 to 0.5)”: median about -0.046, highest 2% from about 0.36 on). The list shows a part of the results.

test system: T1, SpTbr T-box DNA-binding domain (GST fusion); experiment: PBM E-score of 8-mer (E-score (dimensionless, -0.5 to 0.5)); Tbr is Tbrain of the sea star Patiria miniata (Pm) or the sea urchin Strongylocentrotus purpuratus (Sp); higher = stronger binding preference; most listed sequences are background and not binding sites; details: the construct has about 5 more residues each side
T1 sequence: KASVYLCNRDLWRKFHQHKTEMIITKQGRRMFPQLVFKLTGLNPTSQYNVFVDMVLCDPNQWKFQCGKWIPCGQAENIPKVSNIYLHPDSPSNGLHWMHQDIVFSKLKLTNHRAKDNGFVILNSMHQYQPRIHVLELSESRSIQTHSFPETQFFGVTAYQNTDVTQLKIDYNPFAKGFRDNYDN
Procedure: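 Universal protein-binding microarray (Agilent AMADID 016060, 60-bp probes with a 35-bp variable region) incubated with 200 nM GST-fused Strongylocentrotus purpuratus Tbr T-box DNA-binding domain (residues 362-554) in PBS pH 7.5. Scored for every ungapped 8-mer (given with its reverse complement) as E-score (range -0.5 to 0.5; >0.45 counts as bound) and Z-score of median probe intensity. Two replicate arrays (datasets 1 and 2).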
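Note: protein at 200 nM in PBS on universal double-stranded arrays.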

Sequence	PBM E-score of 8-mer
CGTGGGGC	-0.0544 ± 0.011
AGTTATCG	0.0587 ± 0.047
CTGTGTAC	-0.0828 ± 0.018
ACCAACAT	-0.0463 ± 0.08
GCCGCCTA	-0.219 ± 0.02
CAGATCCA	-0.0608 ± 0.00019
CAGGTGAA	0.199 ± 0.031
CCAGCGAA	0.104 ± 0.025
CCAAAACC	0.00645 ± 0.01
GTCAACAA	0.333 ± 0.0095
AGCCAGCC	-0.185 ± 0.0059
ACTGTCTG	0.126 ± 0.021
AAATAGTA	-0.15 ± 0.14
AGTGTGCC	0.121 ± 0.013
CGGGGGTA	-0.276 ± 0.062
CCCGAAAA	-0.25 ± 0.016
AATGCTGT	-0.0262 ± 0.063
AGGCTAAT	-0.255 ± 0.1
CACGCTTA	0.269 ± 0.02
CATGTACC	-0.137 ± 0.038
GCCTGCCA	0.137 ± 0.021
CATAAGAC	-0.153 ± 0.019
ATGGGTAG	-0.0887 ± 0.038
TGACCGAA	0.199 ± 0.059
ACTGTAAA	0.0831 ± 0.058

Sequence	PBM E-score of 8-mer
AAACCAAA	-0.151 ± 0.062
GAGGATTA	0.0837 ± 0.03
GCCGACAC	0.397 ± 0.0048
GAACTTGC	0.0607 ± 0.052
CTTCGATA	-0.0573 ± 0.016
ACCCGGAG	0.166 ± 0.062
GCAGCACA	-0.0507 ± 0.022
GGCAGTAA	-0.0812 ± 0.029
AGTCATCA	0.0178 ± 0.049
ATCGACTC	-0.167 ± 0.072
CGTCGCAG	-0.0249 ± 0.077
AGCCCAAC	-0.148 ± 0.067
GGATGGTA	-0.28 ± 0.051
GGACATTA	-0.302 ± 0.0096
ACGTAACC	-0.154 ± 0.03
CAATGATG	-0.0679 ± 0.018
CCCGGTGA	-0.22 ± 0.014
ACTGACCG	-0.083 ± 0.076
CATCTTGA	0.0681 ± 0.024
ATCTTGAG	-0.022 ± 0.099
CAGGGCGA	0.0768 ± 0.017
GGGACGAA	-0.152 ± 0.14
GGAGATAC	-0.243 ± 0.0034
CGTGACAA	0.364 ± 0.0037
CTTCCCGA	0.0262 ± 0.04

Sequence	PBM E-score of 8-mer
AACGCATT	0.0395 ± 0.12
CCCCTCCC	-0.15 ± 0.049
AATCAAGA	-0.0943 ± 0.11
TAAAAGTA	-0.298 ± 0.071
ATGGCCCA	-0.167 ± 0.093
TGATAAAA	0.116 ± 0.11
GATTTCAA	-0.221 ± 0.047
ATAGGACG	-0.386 ± 0.053
GGCTACCA	-0.2 ± 0.047
AGCCACCT	0.062 ± 0.0076
ATGATTAG	0.12 ± 0.0086
CGTTACGA	-0.0252 ± 0.082
GGTTCTGA	-0.214 ± 0.023
GCATGCGA	-0.0129 ± 0.011
GCCGTGAC	0.199 ± 0.011
CGGAGCAA	-0.127 ± 0.053
CTCTTACA	0.0754 ± 0.034
CGGATCTA	-0.102 ± 0.079
ACACGCCA	0.205 ± 0.0044
ACTCCCGC	0.104 ± 0.022
ATGTAAAC	0.0731 ± 0.026
GTTCGCCA	0.158 ± 0.011
GCCCGCAA	-0.0375 ± 0.015
AAAGGACT	-0.281 ± 0.012
ACAGATAT	-0.032 ± 0.017

Sequence	PBM E-score of 8-mer
AAACTAAG	-0.151 ± 0.021
ACGTTTCG	0.239 ± 0.066
CATCAAAA	-0.168 ± 0.033
GAATAGGA	-0.216 ± 0.0067
ATCATCAT	0.00539 ± 0.079
TACGAAAA	-0.00221 ± 0.059
ACTAAAAC	-0.0913 ± 0.026
AGCTGTCC	0.00624 ± 0.016
AGAGTTTG	0.0201 ± 0.029
TACGCCTA	0.0945 ± 0.018
GGGTGTCA	0.475 ± 0.0055
CCCCGACC	-0.146 ± 0.005
CGGCAACA	0.191 ± 0.04
AATAATGC	-0.0191 ± 0.025
CGTCACCA	0.258 ± 0.03
AAACCTGC	-0.0548 ± 0.029
TAGAGCGA	-0.0324 ± 0.03
AAAAAGAG	-0.24 ± 0.048
CGGGACGA	-0.244 ± 0.043
ACTTAAGC	0.185 ± 0.0074
CCAGGGCC	-0.00186 ± 0.02
GGAATGGA	-0.196 ± 0.031
AGACCGAG	-0.189 ± 0.04
GCGAATAA	0.291 ± 0.029
AAGTCCAG	-0.241 ± 0.011

Sequence	PBM E-score of 8-mer
ACGATAAG	0.152 ± 0.035
AATTCTAC	-0.119 ± 0.1
GCTTGCAA	0.0892 ± 0.014
TAATCTCA	0.0231 ± 0.018
ACGGGCTA	-0.229 ± 0.0092
CTTCTGAA	-0.117 ± 0.082
ACATGGCG	0.0493 ± 0.0019
ATAGGTAG	-0.036 ± 0.12
AAGTTAAA	0.0719 ± 0.053
CCGCGACG	0.0384 ± 0.061
GGGGTATA	-0.198 ± 0.023
CGGCATTC	-0.0562 ± 0.032
GGACAAAA	-0.16539 ± 9.2e-05
ATGCACCC	0.00698 ± 0.074
AGCCCACA	0.152 ± 0.013
ACATGGAC	0.142 ± 0.099
CACTCGAC	0.101 ± 0.052
CTGGGAAG	0.0242 ± 0.062
AAAGGGCC	-0.425 ± 0.043
CTGAGAAC	0.0561 ± 0.038
TCATTTCA	0.0743 ± 0.065
CAAATGTC	0.0448 ± 0.019
ATTGGCGC	0.244 ± 0.032
AACCGCAA	-0.0328 ± 0.037
GTCTCTAA	-0.0842 ± 0.0091

Sequence	PBM E-score of 8-mer
CCAAAGCC	-0.197 ± 0.079
ACACAGTC	0.152 ± 0.069
CCGTCTAG	-0.161 ± 0.097
CTGATGCC	-0.187 ± 0.043
CTTTCTCC	-0.138 ± 0.0068
CTAATCAC	0.139 ± 0.0056
ACTACATA	-0.231 ± 0.013
GCCCTAAC	-0.0612 ± 0.02
AAGGACTG	-0.0537 ± 0.072
GTTCCCGA	-0.0903 ± 0.0046
CTCATGGC	-0.0387 ± 0.0099
TAGCTATA	-0.17 ± 0.009
CTCACCAA	0.133 ± 0.059
ACGTGCGA	0.4353 ± 0.0022
ATGGAATC	-0.125 ± 0.063
CAGCACCC	0.242 ± 0.024
GCTGGCAC	0.202 ± 0.02
ATTTGTCC	0.0415 ± 0.006
ATCAAGAG	-0.238 ± 0.078
ATTGGACC	-0.17 ± 0.016
ATGAATGG	-0.114 ± 0.0039
CGCAATTC	0.169 ± 0.0051
ACGCGTAA	0.244 ± 0.033
AGGCTCAA	-0.0724 ± 0.025
ACCCGGAT	0.00386 ± 0.0088

Sequence	PBM E-score of 8-mer
CGGACCAG	-0.216 ± 0.011
ACACGGCG	0.177 ± 0.07
CAAAGCGC	-0.0211 ± 0.062
ATCCCGCC	-0.0677 ± 0.065
ACCACAGG	0.0755 ± 0.041
GGCTATAA	-0.0685 ± 0.0091
AGATAGAT	-0.223 ± 0.013
ATCTCACG	0.29 ± 0.012
ATCCTTAG	-0.379 ± 0.063
AACCTCAT	-0.0711 ± 0.02
GCAACAGA	-0.0993 ± 0.047
GTATACGA	-0.115 ± 0.033
AATGAACA	-0.0898 ± 0.025
CAAAAGGC	0.0691 ± 0.048
TTAAACAA	0.0248 ± 0.054
CATCCGGG	-0.173 ± 0.013
CATTTTCC	-0.0437 ± 0.07
GGCACGCC	0.149 ± 0.035
ATGTATAC	-0.102 ± 0.018
CATTGATC	-0.151 ± 0.064
GAACTTTA	-0.043 ± 0.015
CGGGCCTA	-0.265 ± 0.018
